The chains are these.
B1: chrX:120613669:120613770:+|3pUTR|ENSG00000232119|msi1|total|mutant (ssRNA)
RNA: GGGAGUUCUACAGUCCGACGAUCUAUGCCUCCUGUAUAUCCUGUAAACAAAUAAGAUUGAUCAGAUUCAGGUUCAGUUUUUUCCGUGCCUUCUUUUGAGUAAAGUCAUACCAAACAGAUGCCCAGAACAUCUGGAUUUGGGUCCAACAGAGGAUUGAGCAUCA
B2: chr7:82949737:82949846:-|CDS|ENSG00000186472|unk|FALSE|unique (ssRNA)
RNA: GGGAGUUCUACAGUCCGACGAUCAAGUCCUCAAUAUCUGAGUGCCACAUCUCCACCCAAAGACAAGAAACGCCCAACACCUUUAGAGAUUGGUUAUUCAUCUCACCUCCGGGCAGAUUCCACAGUACAGCUGGCUCCUUCCCCCAACAGAGGAUUGAGCAUCA
B3: chr5:177595998:177596040:+|3pUTR|ENSG00000184840|msi1_unk|total|mutant (ssRNA)
RNA: GGGAGUUCUACAGUCCGACGAUCCCUGAGCUGCUUCACAUGGUUGUCCAUUCUGGGGCUUAAAGAACUGGGACCAGACCAAGCCGAGGCCUUGGUGCUGGUUGGGGUGGGGCCUGCAGAGUCUCCGUUACUGAUUUCAUUUUCCAACAGAGGAUUGAGCAUCA
B4: chr5:56881662:56881777:+|CDS|ENSG00000095015|unk|total|mutant (ssRNA)
RNA: GGGAGUUCUACAGUCCGACGAUCGAUCUACUUGAGUUCUGCAAGAAUGGUUACUACAGUACCCCAUGUGUUUUCAAAACUGUCCGAAAUGCUGAGUGUUUCCAGUUCCACUCACUUCACCAGGAUGCGUCGCCGUUUGAUGGCCAACAGAGGAUUGAGCAUCA
B5: chr9:133763799:133763900:-|3pUTR|ENSG00000160293|msi1|total|mutant (ssRNA)
RNA: GGGAGUUCUACAGUCCGACGAUCCGAACCGUUUCACUGUCAGCCUGCCCUCGGCGACCCAUCACUGGGUAUGCUAUUGUACACCGAGGAAACCUGGGCCCGCCCCACCCAGAGCGCAGAGGAGGGGGCACCGACAGCGCUGCGCAACAGAGGAUUGAGCAUCA
B6: ENSG00000198589:be:win_6451|CDS|ENSG00000198589|bound_else_gene|NA|bound_elsewhere_windowed (ssRNA)
RNA: GGGAGUUCUACAGUCCGACGAUCGCUGUGAUGUUCAACUUCCCAGACCCUGCAACAGUAAAGAAAGUGGUUAACUAUCUACCUCGUGUUGGCGUUGGAACAAGUUUUGGAUUGCCUCAAACCAGACGUAUUUCAUUAGCUAGUCAACAGAGGAUUGAGCAUCA
B7: chr9:137457406:137457901:-|CDS|ENSG00000165802|control|control|control (ssRNA)
RNA: GGGAGUUCUACAGUCCGACGAUCCGCCUGUCCCUCGUCUCCAACGGCUGCUACGAGGGCAGCCUCUCAGAGGAGCCCAGCAUUAGGAAGCCCGCAGGCGAGGGCCCUCAGCCUCGAGUGUACACCAUCUCUGGGGAGCCUGCCCAACAGAGGAUUGAGCAUCA
B8: chr8:140515610:140515764:+|3pUTR|ENSG00000104472|unk|FALSE|unique (ssRNA)
RNA: GGGAGUUCUACAGUCCGACGAUCUUUUGGAAUCAGUUCUUAUAAACAGCUCGAUUCAGUUUUAGCUAAAUUUAUAGUUUAGGUAGUAUGUUACAUUUGAAUUUUUGUCUUAAGAAAAGUUGACUGUUCAGAUAUUUUUCUACUCAACAGAGGAUUGAGCAUCA
B9: chr14:21351797:21351898:-|3pUTR|ENSG00000092201|msi1|total|mutant (ssRNA)
RNA: GGGAGUUCUACAGUCCGACGAUCGAGGAAGGCUCAAAGGAGUCAACAUUUAUAUCUGGAAGGGACAAGUCAUGCCUUGGGCCCCGAAUACCCUGAUGAGAAAAGAGAAGAGGAAGGGAGGCCAUAUCUACAACACAGCCUCUCCAACAGAGGAUUGAGCAUCA
B10: chr3:179334110:179334217:+|CDS|ENSG00000121864|unk|FALSE|unique (ssRNA)
RNA: GGGAGUUCUACAGUCCGACGAUCACAUACAAAAAUUUUUCCUCAUGUUUGUGAUGACUGUGGGAAAGGCUUUUCAAGUAUGCUAGAAUAUUGCAAGCAUUUAAAUUCACAUUUAUCUGAAGGGAUUUAUUUAUGUCAAUAUUGCAACAGAGGAUUGAGCAUCA
B11: chr3:113978857:113979010:-|three_prime_utr|ENSG00000163617|control|control|control (ssRNA)
RNA: GGGAGUUCUACAGUCCGACGAUCGCAGAAGAACAUUACUCUUUGUUCCUGCAGAGGAAAUACAUGCUGACGUGGUUCCAGCGUAGUCAGGAAAGUCUGGCUAGAAAGAUGGCCCAGGCUGAUCAAUUUUAUUCCCAAAUACUGCAACAGAGGAUUGAGCAUCA
B12: chr1:153662446:153662560:-|CDS|ENSG00000143621|unk|FALSE|unique (ssRNA)
RNA: GGGAGUUCUACAGUCCGACGAUCAAUCACCUUUUUCUCUUUCCUAGAUCUUGCUUCUGAAAUAUCUACCUGGGAUGGAGUGAUAGUAACACCUUCAGAAAAGGCUUAUGAGAAGCCACCAGAGAAGAAGGAAGGAGAGGAAGACAACAGAGGAUUGAGCAUCA
B13: chr5:159157431:159157536:-|3pUTR|ENSG00000145860|unk|total|mutant (ssRNA)
RNA: GGGAGUUCUACAGUCCGACGAUCCAAAAAGUGUUUUUCAGACCUCGGUAUUCCUAAUGUGGGAUGUGACUUUAUUUUAUUUUCCGCCGCAAAUUUGGAUGCCGACUGACAGACACCGCUGAAUGUCUUAAUAAAUUUAAAUUUCAACAGAGGAUUGAGCAUCA
B14: chr4:67508813:67509105:-|CDS|ENSG00000145241|control|control|control (ssRNA)
RNA: GGGAGUUCUACAGUCCGACGAUCAUGCAUCACAAUAGUAGCCGAAAAUCUACUAAGAAAACAAAUCAGUCAUCUAAGAAUAUUAGGAAAAAAACUAUUCCACUUAAAAGGCAGAAGACAGCAACUAAAGGCAACCAAAGAGUACAACAGAGGAUUGAGCAUCA
B15: chr1:150220393:150220494:-|3pUTR|ENSG00000143401|msi1_unk|total|mutant (ssRNA)
RNA: GGGAGUUCUACAGUCCGACGAUCAUUGUAUGCCGAGAAAAAUUUUCAUUGACUCCCAUUGUGGAAUUCCCCCGCAAUUUAUUCCGACUUAAUUUUUUAAAUUCAAGCUUACUGUAUCCGUCAUUUUCCGCCCAUAAUUAAAACCAACAGAGGAUUGAGCAUCA
B16: chr22:46679111:46679212:+|3pUTR|ENSG00000075240|msi1|total|mutant (ssRNA)
RNA: GGGAGUUCUACAGUCCGACGAUCAGGGCCCGGCAGUGCCCAAGGAUGGGUCCGGGGCCUCGGGGCCAAUGAGCGCCUCUUCCCCGGUGCUGGGAUUCAGUCCCCAAACACAGCGGGAGGGGUCCCUGGGGCAGAUGGGGCUUUCAACAGAGGAUUGAGCAUCA
B17: chr3:51993521:51994126:-|three_prime_utr|ENSG00000162244|control|control|control (ssRNA)
RNA: GGGAGUUCUACAGUCCGACGAUCCAGCUUCAGUUCCAGCUCAGGCUCCCAAACGUACCCAGGCCCCUACAAAGGCUUCAGAGUAGAUAUCUCUGCCAACAUGAGGACAGAAGGACUGGUGCGACCCCCCACCCCCGCCCCUGGCAACAGAGGAUUGAGCAUCA
B18: chr1:37566712:37566813:+|3pUTR|ENSG00000163879|unk|total|mutant (ssRNA)
RNA: GGGAGUUCUACAGUCCGACGAUCGCUUUAUUUCCCCCGCACUGGUGAAGGGCUUCAACUGUCAAACCUCAGAACAAAUGCAUCCGGGCCUCCGAAAUGUCAAUGGGGCAGGAAGAAAACACAAUUUCUAACUGCCUGUUUUUGCAACAGAGGAUUGAGCAUCA
B19: chr15:34983303:34983404:-|CDS|ENSG00000198146|msi1|total|mutant (ssRNA)
RNA: GGGAGUUCUACAGUCCGACGAUCGCUGAAAACAAUUUAAAAAUGCUAAAGAUUCAACAGUGUGUGGCCGCCAACAAACUACCCCGAAACAGGCCAUAUGUUUGCAAUAUUUGUUUUAAGCACUUUGAAACACCAUCAAAAUUACAACAGAGGAUUGAGCAUCA
B20: ENSG00000103429:stop:overlap|stop_codon|ENSG00000103429|stop_codon|NA|stop_codon (ssRNA)
RNA: GGGAGUUCUACAGUCCGACGAUCAACUGAAUGUGAACACAGCAGGUGUGAGAUGUCAUCUUGGAAGACAGGCCUUGCAGAAAUAGGCCUACAUCCAAAAUAUUAUCUUGUGACUCCAUGAACCAUUCAUUAACCCUUUGUAUCCAACAGAGGAUUGAGCAUCA
B21: chr7:82953248:82953350:-|CDS|ENSG00000186472|unk|FALSE|unique (ssRNA)
RNA: GGGAGUUCUACAGUCCGACGAUCAACAGAUAUACACCCCAAACCAACAGGCCUAUCUUUAACUUCAAGUAUGACCUUAAAUUUAGUGACUUCAGCAGAUUAUAAAUUGCCUUCCCCUACCUCCCCACUUUCCCCACACUCCAACAACAGAGGAUUGAGCAUCA
B22: ENSG00000079246:stop:overlap|stop_codon|ENSG00000079246|stop_codon|NA|stop_codon (ssRNA)
RNA: GGGAGUUCUACAGUCCGACGAUCGAGACACAGCAGCUGUAUUUGAAGAAGGUGGUGAUGUGGACGAUUUAUUGGACAUGAUAUAGGUCGUGGAUGUAUGGGGAAUCUAAGAGAGCUGCCAUCGCUGUGAUGCUGGGAGUUCUACAACAGAGGAUUGAGCAUCA

The list shows a part of the results.

This assay deals with MSI1 full-length (mouse, UniProt Q61474 1-362). As to the kind of experiment: nsRBNS (natural sequence RNA bind-n-seq); RBNS binding buffer (assumed for nsRBNS): 25 mM Tris pH 7.5, 150 mM KCl, 3 mM MgCl2, 0.01% Triton X-100, 500 ug/ml BSA, 20 U/ml SUPERase-In, 4 C; UNK is unkempt and MSI1 is Musashi-1; names of the RNAs are library labels; protein concentration not given here; high values mean tight binding.
Chain of UniProt Q61474 (Q61474 whole entry): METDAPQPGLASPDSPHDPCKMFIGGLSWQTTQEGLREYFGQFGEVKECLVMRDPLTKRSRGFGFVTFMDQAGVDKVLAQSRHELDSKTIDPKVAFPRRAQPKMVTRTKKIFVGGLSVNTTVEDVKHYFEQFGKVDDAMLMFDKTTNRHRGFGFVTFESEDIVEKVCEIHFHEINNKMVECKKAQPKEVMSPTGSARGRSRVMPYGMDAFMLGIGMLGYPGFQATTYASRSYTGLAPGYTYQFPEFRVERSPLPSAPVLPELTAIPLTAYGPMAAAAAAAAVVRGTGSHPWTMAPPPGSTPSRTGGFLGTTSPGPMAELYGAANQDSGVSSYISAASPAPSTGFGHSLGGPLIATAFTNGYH
For B1, the binding signal was 0.25 enrichment R.

B2 had a binding signal of 0.661 enrichment R.

Molecule B3 came in with a binding signal of 0.42 enrichment R.

With B4, the binding signal came out at 0.393 enrichment R.

Take B5: the binding signal is 0.483 enrichment R.

B6 gave a binding signal of 3.48 enrichment R.

Turning to B7, the binding signal was 0.4 enrichment R.

The molecule B8 gave a binding signal of 69.1 enrichment R.

Molecule B9 had a binding signal of 1.04 enrichment R.

Consider B10, for which the binding signal was 0.274 enrichment R.

In turn, B11 had a binding signal of 0.403 enrichment R.

Molecule B12 showed a binding signal of 0.576 enrichment R.

With B13, the binding signal came to 0.361 enrichment R.

In the case of B14, the binding signal is 1.28 enrichment R.

In turn, B15 showed a binding signal of 2.27 enrichment R.

B16 had a binding signal of 0.331 enrichment R.

Molecule B17 gave a binding signal of 0.728 enrichment R.

For the molecule B18, the binding signal was determined as 0.361 enrichment R.

In turn, B19 displayed a binding signal of 0.274 enrichment R.

Consider B20, for which the binding signal stood at 0.579 enrichment R.

In turn, B21 came in with a binding signal of 2.9 enrichment R.

As to B22, the binding signal was 0.303 enrichment R.

The values above are taken from article PMC12136788.
